We go through 56 compounds from paper PMC4336329 (PLoS ONE, 2015).

About 2,200 (0.71%) of roughly 310,000 compounds showed an effect of 50% or more. The effect is printed as a negative number. The list shows a part of the results.

Sequence of human ether-à-go-go-related gene (hERG) potassium channel (Q12809 whole entry, looked up): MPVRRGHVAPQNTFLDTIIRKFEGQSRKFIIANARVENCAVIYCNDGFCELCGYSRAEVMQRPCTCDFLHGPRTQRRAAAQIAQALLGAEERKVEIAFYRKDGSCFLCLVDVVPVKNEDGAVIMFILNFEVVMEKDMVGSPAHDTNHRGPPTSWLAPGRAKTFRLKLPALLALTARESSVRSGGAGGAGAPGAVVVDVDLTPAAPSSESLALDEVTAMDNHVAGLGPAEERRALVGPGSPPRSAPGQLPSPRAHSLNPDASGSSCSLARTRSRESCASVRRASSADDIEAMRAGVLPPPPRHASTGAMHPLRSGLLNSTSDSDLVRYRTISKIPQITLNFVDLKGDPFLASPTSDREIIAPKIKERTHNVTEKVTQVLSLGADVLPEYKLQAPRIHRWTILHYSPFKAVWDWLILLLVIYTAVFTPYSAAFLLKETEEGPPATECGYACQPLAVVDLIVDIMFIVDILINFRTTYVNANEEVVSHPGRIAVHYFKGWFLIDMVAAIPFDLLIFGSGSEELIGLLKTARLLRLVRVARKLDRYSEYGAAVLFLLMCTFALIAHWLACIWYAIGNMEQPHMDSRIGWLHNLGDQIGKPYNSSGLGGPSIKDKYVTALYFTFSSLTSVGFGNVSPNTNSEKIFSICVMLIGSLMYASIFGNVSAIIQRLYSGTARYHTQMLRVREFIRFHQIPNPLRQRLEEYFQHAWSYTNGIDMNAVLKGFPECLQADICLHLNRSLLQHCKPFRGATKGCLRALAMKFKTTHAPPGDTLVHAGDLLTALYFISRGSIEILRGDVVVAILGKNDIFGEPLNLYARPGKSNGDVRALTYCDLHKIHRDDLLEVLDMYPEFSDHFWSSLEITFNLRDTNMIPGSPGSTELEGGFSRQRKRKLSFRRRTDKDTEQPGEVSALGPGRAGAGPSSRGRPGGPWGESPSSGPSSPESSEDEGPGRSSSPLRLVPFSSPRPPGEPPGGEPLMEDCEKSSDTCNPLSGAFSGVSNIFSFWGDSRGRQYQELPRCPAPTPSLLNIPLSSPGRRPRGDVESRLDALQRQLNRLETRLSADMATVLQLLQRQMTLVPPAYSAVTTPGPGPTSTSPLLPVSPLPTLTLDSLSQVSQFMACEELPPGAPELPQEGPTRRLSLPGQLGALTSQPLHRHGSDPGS

This test concerns the target human ether-à-go-go-related gene (hERG) potassium channel (human, UniProt Q12809). In words: primary screen, population patch clamp on CHO cells stably expressing hERG.
In the case of `O=C(c1cccc(Cl)c1)N1CCC(N2CCC(C(=O)N3CCOCC3)CC2)CC1`, the “hERG current change (%, negative = inhibition) at 1uM” value is reported as -1.41%.

Take `CC(=O)Nc1ccc(S(=O)(=O)NCCc2csc(C)n2)cc1`: the “hERG current change (%, negative = inhibition) at 1uM” value was found to be 2.8%.

For `CCOc1ccc(N2CC(C(=O)Nc3ccccc3N3CCOCC3)CC2=O)cc1` (centres unmarked), the “hERG current change (%, negative = inhibition) at 1uM” value is 4.41%.

As for `Cc1nnc(SCC(=O)N2CCN(S(=O)(=O)c3ccc(Cl)cc3)CC2)[nH]c1=O`, the “hERG current change (%, negative = inhibition) at 1uM” value amounted to 15.6%.

For `CCN(CC(=O)NC1CCS(=O)(=O)C1)C(=O)c1cc(OC)c(OC)c(OC)c1` (centres unmarked), the “hERG current change (%, negative = inhibition) at 1uM” value is given as 7.09%.

For `CCN(C(C)=O)c1nc(CCl)cs1`, the “hERG current change (%, negative = inhibition) at 1uM” value stood at 10.6%.

Take `CC(C)(C)NC(=O)COc1ccc(CNCc2ccccn2)cc1.Cl`: the “hERG current change (%, negative = inhibition) at 1uM” value is recorded as 14.6%.

For `Cc1c(C(=O)NCC2COc3ccccc3O2)oc2ccc(S(=O)(=O)N3CCOCC3)cc12` (centres unmarked), the “hERG current change (%, negative = inhibition) at 1uM” value is reported as -6.02%.

Turning to `CCOC(=O)N1CCN(C(=O)CSc2nc(=O)n3cccc(C)c3n2)CC1`, the “hERG current change (%, negative = inhibition) at 1uM” value was found to be 3.08%.

For `Cc1cc(N2CCOCC2)nc2ccc(NC(=O)CCC(=O)N3CCN(c4cccc(C(F)(F)F)c4)CC3)cc12`, the “hERG current change (%, negative = inhibition) at 1uM” value is given as 12.4%.

Regarding `Cc1cc(C(C)(C)C)ccc1OCCn1ccnc1.O=C(O)C(=O)O`, the “hERG current change (%, negative = inhibition) at 1uM” value came to 6.53%.

Regarding `Cc1ccc(Cc2nc3ccccc3[nH]2)cc1`, the “hERG current change (%, negative = inhibition) at 1uM” value is 11.3%.

Take `Cc1ccc(C2CC(=O)NC3=C2C(=O)CCC3)cc1Br` (centres unmarked): the “hERG current change (%, negative = inhibition) at 1uM” value was 8.67%.

Turning to `CN(CC(=O)Nc1ccccc1Cl)C(=O)c1ccc(COc2ccccc2)cc1`, the “hERG current change (%, negative = inhibition) at 1uM” value is 5.44%.

For the compound `C/C(=C\c1ccccc1)CN1CCN(c2ccccc2)CC1`, the “hERG current change (%, negative = inhibition) at 1uM” value was found to be 9.63%.

On to `N#CC1(NC(=O)CSc2nnc(-c3ccccc3F)o2)CCCCC1`, for which the “hERG current change (%, negative = inhibition) at 1uM” value is 4.07%.

As for `Cc1ccccc1Oc1cc(NC(=O)CCCn2nc(C)c([N+](=O)[O-])c2C)cc([N+](=O)[O-])c1`, the “hERG current change (%, negative = inhibition) at 1uM” value was found to be 16.3%.

As to `COc1cc(NC(=O)c2cc(Cl)ccc2Cl)ccc1-c1cc2ccccc2oc1=O`, the “hERG current change (%, negative = inhibition) at 1uM” value is 5.64%.

On to `NC(=O)C1CCCc2c1n(Cc1ccccc1)c1ccccc21` (centres unmarked), for which the “hERG current change (%, negative = inhibition) at 1uM” value was 9.63%.

As for `O=C(CNC(=O)c1sc2ccccc2c1Cl)NCc1ccccc1`, the “hERG current change (%, negative = inhibition) at 1uM” value came out at 3.9%.

With `Cc1ccc(CNC(=O)c2cnc(-c3ccccn3)nc2C(F)(F)F)cc1`, the “hERG current change (%, negative = inhibition) at 1uM” value stood at 15%.

Turning to `Cc1ccc(NC(=O)CCS(=O)(=O)c2cc3c(cc2Cl)NC(=O)CO3)cc1`, the “hERG current change (%, negative = inhibition) at 1uM” value came to 9.92%.

Regarding `COc1cccc(-c2noc(C3CCCN(C(=O)c4ccccc4OC)C3)n2)c1` (centres unmarked), the “hERG current change (%, negative = inhibition) at 1uM” value was found to be 9.27%.

In the case of `COc1ccccc1/C=N/OC(=O)c1ccc(F)cc1`, the “hERG current change (%, negative = inhibition) at 1uM” value stood at 3.2%.

In the case of `CCOc1ccc(CCNC(=O)C2CCCN(c3nn4c(=O)cc(C)nc4s3)C2)cc1OCC` (centres unmarked), the “hERG current change (%, negative = inhibition) at 1uM” value worked out at 6.88%.

Turning to `CCN(CC)c1ccc(Nc2nc(N3CCOCC3)c3ccccc3n2)cc1`, the “hERG current change (%, negative = inhibition) at 1uM” value is given as -7.62%.

On to `CC(=O)NCCCc1nc2ccccc2n1Cc1cc(C)ccc1C`, for which the “hERG current change (%, negative = inhibition) at 1uM” value turned out to be 13%.

As for `O=C(Nc1cc2c(ccc3ccccc32)oc1=O)C1CCCCC1`, the “hERG current change (%, negative = inhibition) at 1uM” value is listed as -3.41%.

Take `Cc1ccc(C(=O)CSc2nc(C)cc(SCc3nnc(-c4ccccc4)o3)n2)cc1`: the “hERG current change (%, negative = inhibition) at 1uM” value came out at 11.6%.

For `O=C(c1ccccc1)c1ccc(-c2ccc(O)cc2)cc1`, the “hERG current change (%, negative = inhibition) at 1uM” value is recorded as 8.08%.

Regarding `CC(C)N(Cc1nc(-c2ccccc2)no1)C(=O)c1ccc2c(c1)OCO2`, the “hERG current change (%, negative = inhibition) at 1uM” value is -6.98%.

Regarding `Cn1c2ccccc2c2c(C(=O)N3CCN(c4ccccc4)CC3)cn(C3CCCC3)c(=O)c21`, the “hERG current change (%, negative = inhibition) at 1uM” value turned out to be 7.5%.

Consider `O=c1c2cc3ccccc3n2cnn1Cc1ccccc1F`, for which the “hERG current change (%, negative = inhibition) at 1uM” value is recorded as -3.7%.

For the compound `O=C1Nc2ccc(Br)cc2C1Cc1ccccc1F` (centres unmarked), the “hERG current change (%, negative = inhibition) at 1uM” value turned out to be 9.99%.

Take `Cc1nc(/N=C(\N)NC(=O)c2ccccc2)nc2ccccc12`: the “hERG current change (%, negative = inhibition) at 1uM” value came out at 5.27%.

In the case of `Cc1ccc(NC(=O)NCCN2CCCCC2)cc1C`, the “hERG current change (%, negative = inhibition) at 1uM” value worked out at 1.9%.

Consider `CCOc1ccccc1NC(=O)/C=C/c1ccccc1[N+](=O)[O-]`, for which the “hERG current change (%, negative = inhibition) at 1uM” value is listed as -1.98%.

For `Cc1cc(Cl)ccc1OCC(=O)NCC(=O)N/N=C/c1ccco1`, the “hERG current change (%, negative = inhibition) at 1uM” value was found to be 8.32%.

Turning to `O=C1CCN(S(=O)(=O)c2ccc(Cl)cc2)CC1`, the “hERG current change (%, negative = inhibition) at 1uM” value is -0.748%.

As to `COc1ccc2ccc(OCC(=O)N3c4ccccc4NC(=O)CC3C)cc2c1` (centres unmarked), the “hERG current change (%, negative = inhibition) at 1uM” value was -4.14%.

In the case of `COc1ccc(C(=O)Nc2sc(C)c(C)c2CN2CCOCC2)cc1`, the “hERG current change (%, negative = inhibition) at 1uM” value came to 12.8%.

Turning to `COc1ccc(NC(=O)CC2C(=O)N(C)C(=S)N2CCc2ccccc2)cc1` (centres unmarked), the “hERG current change (%, negative = inhibition) at 1uM” value turned out to be 8.62%.

On to `COc1cccc(/C=C/C(=O)OCC(=O)NC(=O)NC2CCCC2)c1`, for which the “hERG current change (%, negative = inhibition) at 1uM” value came to 9.71%.

In the case of `CCCCc1cc(=O)oc2cc(OCC(=O)N(CC)CC)ccc12`, the “hERG current change (%, negative = inhibition) at 1uM” value is reported as 3.9%.

Consider `O=C1CC(N2CCN(C3CC(=O)N(CCc4ccccc4)C3=O)CC2)C(=O)N1CCc1ccccc1` (centres unmarked), for which the “hERG current change (%, negative = inhibition) at 1uM” value is 7.64%.

As to `COc1ccc(CC(=O)NN2C(=O)c3ccccc3C2=O)cc1`, the “hERG current change (%, negative = inhibition) at 1uM” value is listed as 6.7%.

`O=C(O)[C@@H]1CCCN1c1ncnc2sc3c(c12)CCC3`: the “hERG current change (%, negative = inhibition) at 1uM” value is given as -1.36%.

In the case of `CCC1CCCCN1CCCNC(=O)c1cc2c(=O)[nH]c3ccccc3c2n1C` (centres unmarked), the “hERG current change (%, negative = inhibition) at 1uM” value came out at 8.22%.

Regarding `COc1cccc(CN(C)C(=O)c2cccc(NC(=O)CC3SC(N4CCCCC4)=NC3=O)c2)c1OC` (centres unmarked), the “hERG current change (%, negative = inhibition) at 1uM” value was determined as 9.32%.

Consider `N#Cc1cc(C#N)c(SCC(=O)NCC2CCCO2)nc1N` (centres unmarked), for which the “hERG current change (%, negative = inhibition) at 1uM” value amounted to 12.1%.

On to `O=C(NNC(=S)Nc1cccc(C(F)(F)F)c1)c1cccc(Cl)c1`, for which the “hERG current change (%, negative = inhibition) at 1uM” value was 14.4%.

On to `CCN(CC)CCNc1nc2c(c(=O)[nH]c(=O)n2C)n1CC(O)COc1ccc(Cl)cc1Cl` (centres unmarked), for which the “hERG current change (%, negative = inhibition) at 1uM” value was -66.1%.

Turning to `Cc1cccn2cc(CNC(=O)CC3CCCC3)nc12`, the “hERG current change (%, negative = inhibition) at 1uM” value is recorded as 7.13%.

For `O=C(N/N=C/c1cc([N+](=O)[O-])ccc1O)C(O)(c1ccccc1)c1ccccc1`, the “hERG current change (%, negative = inhibition) at 1uM” value is listed as 13.2%.

Consider `O=C(Nc1ccccc1)C1CCOC1=O` (centres unmarked), for which the “hERG current change (%, negative = inhibition) at 1uM” value was determined as 13%.

As to `CC1=C(C(=O)OCCNC(=O)c2cccnc2)C(c2cccc([N+](=O)[O-])c2)C(C(=O)OCCN(C)C)=C(C)N1.CCO` (centres unmarked), the “hERG current change (%, negative = inhibition) at 1uM” value is 5.29%.
